# Source: the supplement of paper PMC8728848
# The list shows a part of the results.
# Tests used:
# Experiment in all cases: glycan array binding signal (z-score within array); higher = stronger binding
# Conditions in all cases: glycan notation: IUPAC condensed, linker removed
# Neu5Ac(a2-3)GalNAc = target: Neu5Ac(a2-3)GalNAc
# In short: (§1)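 Columns mapping to the same glycan were averaged after glycan names were converted to IUPAC-condensed notation. The data come from 3228 arrays in the Consortium for Functional Glycomics database, limited to those with an available protein sequence. Binding is reported as a within-array Z-score averaged across arrays of one protein sequence and across linkers.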
# [1] = target: Neu5Ac(a2-3)GalNAc(b1-4)GlcNAc
# In short: as §1
# [2] = target: Neu5Ac(a2-3)[GalNAc(b1-4)]Gal(b1-4)Glc
# In short: as §1
# [3] = target: Neu5Ac(a2-3)[GalNAc(b1-4)]Gal(b1-4)GlcNAc
# In short: as §1
# [4] = target: Neu5Ac(a2-3)[GalNAc(b1-4)]Gal(b1-4)GlcNAc(b1-3)GalNAc
# In short: as §1
# [5] = target: Neu5Ac(a2-3)[Neu5Ac(a2-6)]GalNAc
# In short: as §1
# Neu5Ac(a2-6)Gal = target: Neu5Ac(a2-6)Gal
# In short: as §1
# [6] = target: Neu5Ac(a2-6)Gal(b1-3)GlcNAc(b1-3)[Gal(b1-4)GlcNAc(b1-6)]Gal(b1-4)Glc
# In short: as §1
# Neu5Ac(a2-6)Gal(b1-4)Glc = target: Neu5Ac(a2-6)Gal(b1-4)Glc
# In short: as §1
# [7] = target: Neu5Ac(a2-6)Gal(b1-4)GlcNAc
# In short: as §1
# [8] = target: Neu5Ac(a2-6)Gal(b1-4)GlcNAc(b1-2)Man
# In short: as §1
# [9] = target: Neu5Ac(a2-6)Gal(b1-4)GlcNAc(b1-2)Man(a1-3)Man(b1-4)GlcNAc(b1-4)GlcNAc
# In short: as §1
# [10] = target: Neu5Ac(a2-6)Gal(b1-4)GlcNAc(b1-2)Man(a1-3)[Gal(b1-4)GlcNAc(b1-2)Man(a1-6)]Man(b1-4)GlcNAc(b1-4)GlcNAc
# In short: as §1
# [11] = target: Neu5Ac(a2-6)Gal(b1-4)GlcNAc(b1-2)Man(a1-3)[GlcNAc(b1-2)Man(a1-6)]Man(b1-4)GlcNAc(b1-4)GlcNAc
# In short: as §1
# [12] = target: Neu5Ac(a2-6)Gal(b1-4)GlcNAc(b1-2)Man(a1-3)[GlcNAc(b1-4)][Neu5Ac(a2-6)Gal(b1-4)GlcNAc(b1-2)Man(a1-6)]Man(b1-4)GlcNAc(b1-4)GlcNAc
# In short: as §1
# [13] = target: Neu5Ac(a2-6)Gal(b1-4)GlcNAc(b1-2)Man(a1-3)[Man(a1-6)]Man(b1-4)GlcNAc(b1-4)GlcNAc
# In short: as §1
# [14] = target: Neu5Ac(a2-6)Gal(b1-4)GlcNAc(b1-2)Man(a1-3)[Neu5Ac(a2-3)Gal(b1-4)GlcNAc(b1-2)Man(a1-6)]Man(b1-4)GlcNAc(b1-4)GlcNAc
# In short: as §1
# [15] = target: Neu5Ac(a2-6)Gal(b1-4)GlcNAc(b1-2)Man(a1-3)[Neu5Ac(a2-6)Gal(b1-4)GlcNAc(b1-2)Man(a1-6)]Man(b1-4)GlcNAc(b1-4)GlcNAc
# In short: as §1
# [16] = target: Neu5Ac(a2-6)Gal(b1-4)GlcNAc(b1-2)Man(a1-3)[Neu5Ac(a2-6)Gal(b1-4)GlcNAc(b1-2)Man(a1-6)]Man(b1-4)GlcNAc(b1-4)[Fuc(a1-6)]GlcNAc
# In short: as §1
# [17] = target: Neu5Ac(a2-6)Gal(b1-4)GlcNAc(b1-2)Man(a1-6)Man(b1-4)GlcNAc(b1-4)GlcNAc
# In short: as §1
# [18] = target: Neu5Ac(a2-6)Gal(b1-4)GlcNAc(b1-2)Man(a1-6)[Gal(b1-4)GlcNAc(b1-2)Man(a1-3)]Man(b1-4)GlcNAc(b1-4)GlcNAc
# In short: as §1
# [19] = target: Neu5Ac(a2-6)Gal(b1-4)GlcNAc(b1-2)Man(a1-6)[GlcNAc(b1-2)Man(a1-3)]Man(b1-4)GlcNAc(b1-4)GlcNAc
# In short: as §1
# [20] = target: Neu5Ac(a2-6)Gal(b1-4)GlcNAc(b1-2)Man(a1-6)[Man(a1-3)]Man(b1-4)GlcNAc(b1-4)GlcNAc
# In short: as §1
# [21] = target: Neu5Ac(a2-6)Gal(b1-4)GlcNAc(b1-2)[Neu5Ac(a2-6)Gal(b1-4)GlcNAc(b1-4)]Man(a1-3)[GlcNAc(b1-4)][Neu5Ac(a2-6)Gal(b1-4)GlcNAc(b1-2)[Neu5Ac(a2-6)Gal(b1-4)GlcNAc(b1-6)]Man(a1-6)]Man(b1-4)GlcNAc(b1-4)GlcNAc
# In short: as §1
# [22] = target: Neu5Ac(a2-6)Gal(b1-4)GlcNAc(b1-2)[Neu5Ac(a2-6)Gal(b1-4)GlcNAc(b1-4)]Man(a1-3)[GlcNAc(b1-4)][Neu5Ac(a2-6)Gal(b1-4)GlcNAc(b1-4)Man(a1-6)]Man(b1-4)GlcNAc(b1-4)GlcNAc
# In short: as §1
# [23] = target: Neu5Ac(a2-6)Gal(b1-4)GlcNAc(b1-2)[Neu5Ac(a2-6)Gal(b1-4)GlcNAc(b1-6)]Man(a1-6)[Neu5Ac(a2-6)Gal(b1-4)GlcNAc(b1-2)Man(a1-3)][GlcNAc(b1-4)]Man(b1-4)GlcNAc(b1-4)GlcNAc
# In short: as §1
# [24] = target: Neu5Ac(a2-6)Gal(b1-4)GlcNAc(b1-3)Gal(b1-3)GlcNAc
# In short: as §1
# [25] = target: Neu5Ac(a2-6)Gal(b1-4)GlcNAc(b1-3)Gal(b1-4)GlcNAc
# In short: as §1
# [26] = target: Neu5Ac(a2-6)Gal(b1-4)GlcNAc(b1-3)Gal(b1-4)GlcNAc(b1-2)Man(a1-3)[Neu5Ac(a2-6)Gal(b1-4)GlcNAc(b1-3)Gal(b1-4)GlcNAc(b1-2)Man(a1-6)]GalNAc
# In short: as §1
# [27] = target: Neu5Ac(a2-6)Gal(b1-4)GlcNAc(b1-3)Gal(b1-4)GlcNAc(b1-3)Gal(b1-4)GlcNAc
# In short: as §1
# [28] = target: Neu5Ac(a2-6)Gal(b1-4)GlcNAc(b1-3)Gal(b1-4)GlcNAc(b1-3)Gal(b1-4)GlcNAc(b1-2)Man(a1-3)[Neu5Ac(a2-6)Gal(b1-4)GlcNAc(b1-3)Gal(b1-4)GlcNAc(b1-3)Gal(b1-4)GlcNAc(b1-2)Man(a1-6)]GalNAc
# In short: as §1
# [29] = target: Neu5Ac(a2-6)Gal(b1-4)GlcNAc(b1-3)Gal(b1-4)GlcNAc(b1-3)GalNAc
# In short: as §1
# [30] = target: Neu5Ac(a2-6)Gal(b1-4)GlcNAc(b1-3)Gal(b1-4)GlcNAc(b1-3)[Neu5Ac(a2-6)Gal(b1-4)GlcNAc(b1-3)Gal(b1-4)GlcNAc(b1-6)]GalNAc
# In short: as §1
# [31] = target: Neu5Ac(a2-6)Gal(b1-4)GlcNAc(b1-3)Gal(b1-4)GlcNAc(b1-6)[Gal(b1-3)]GalNAc
# In short: as §1
# [32] = target: Neu5Ac(a2-6)Gal(b1-4)GlcNAc(b1-3)Gal(b1-4)[Fuc(a1-3)]GlcNAc(b1-3)Gal(b1-4)[Fuc(a1-3)]GlcNAc
# In short: as §1
# [33] = target: Neu5Ac(a2-6)Gal(b1-4)GlcNAc(b1-3)GalNAc
# In short: as §1
# [34] = target: Neu5Ac(a2-6)Gal(b1-4)GlcNAc(b1-3)[Neu5Ac(a2-6)Gal(b1-4)GlcNAc(b1-6)]GalNAc
# In short: as §1
# [35] = target: Neu5Ac(a2-6)Gal(b1-4)GlcNAc(b1-6)GalNAc
# In short: as §1
binder,measurement,setting,value
BTL (Bryothamnion triquetrum) (protein) ADPICGSSGYSCTTPAILTPKSPGSFPSGYSKVIVTGVGGSYSVYIHRPDGFKVYKASEGGCASFGSYSGGGNSEVGKYGSGGTVVAVACK,glycan array binding signal (z-score),Neu5Ac(a2-3)GalNAc,-0.277
same,glycan array binding signal (z-score),[1],-0.256
same,glycan array binding signal (z-score),[2],-0.186
same,glycan array binding signal (z-score),[3],-0.276
same,glycan array binding signal (z-score),[4],-0.208
same,glycan array binding signal (z-score),[5],-0.241
same,glycan array binding signal (z-score),Neu5Ac(a2-6)Gal,-0.254
same,glycan array binding signal (z-score),[6],-0.251
same,glycan array binding signal (z-score),Neu5Ac(a2-6)Gal(b1-4)Glc,-0.264
same,glycan array binding signal (z-score),[7],-0.257
same,glycan array binding signal (z-score),[8],-0.199
same,glycan array binding signal (z-score),[9],-0.279
same,glycan array binding signal (z-score),[10],-0.197
same,glycan array binding signal (z-score),[11],-0.274
same,glycan array binding signal (z-score),[12],-0.263
same,glycan array binding signal (z-score),[13],-0.22
same,glycan array binding signal (z-score),[14],-0.249
same,glycan array binding signal (z-score),[15],-0.19
same,glycan array binding signal (z-score),[16],8.12
same,glycan array binding signal (z-score),[17],-0.204
same,glycan array binding signal (z-score),[18],-0.245
same,glycan array binding signal (z-score),[19],-0.287
same,glycan array binding signal (z-score),[20],-0.268
same,glycan array binding signal (z-score),[21],-0.202
same,glycan array binding signal (z-score),[22],-0.25
same,glycan array binding signal (z-score),[23],-0.217
same,glycan array binding signal (z-score),[24],-0.257
same,glycan array binding signal (z-score),[25],-0.277
same,glycan array binding signal (z-score),[26],-0.208
same,glycan array binding signal (z-score),[27],-0.265
same,glycan array binding signal (z-score),[28],-0.016
same,glycan array binding signal (z-score),[29],-0.108
same,glycan array binding signal (z-score),[30],-0.183
same,glycan array binding signal (z-score),[31],-0.161
same,glycan array binding signal (z-score),[32],-0.234
same,glycan array binding signal (z-score),[33],-0.18
same,glycan array binding signal (z-score),[34],-0.22
same,glycan array binding signal (z-score),[35],-0.107
